{
  "source": "paper PMC6387754",
  "about": "“Dual mechanism of TRKB activation by anandamide through CB1 and TRPV1 receptors” (PeerJ, 2019)",
  "biological_target": "T1, CB1 receptor (rat (endogenous in primary cortical …, UniProt P20272))",
  "T1 construct": "cannabinoid receptor CB1, endogenous in rat primary cortical cells; precipitated with anti-CB1; source: endogenous, lysate of primary cortical cultures of E18 rat embryos (DIV8)",
  "test": "co-IP; lysates of DIV8 rat cortical cultures (lysis buffer with 1% NP-40, 137 mM NaCl) incubated overnight at 4 °C with anti-CB1 or anti-TRKB (1 µg antibody / 500 µg total protein), Protein G-sepharose, washed 3 times; blot with anti-TRPV1; no-antibody negative control; TRPV1 precipitated with anti-TRPV1 as total",
  "settings": "partners not purified",
  "data": [
    {"binder": "vanilloid receptor TRPV1 (receptor, TRPV1 (vanilloid receptor, VR1), endogenous in rat primary cortical cells; band at 100 kDa on the blot; also called VR1; source: endogenous, lysate of primary cortical cultures of E18 rat embryos (DIV8)) not shown", "values": [
      {"measurement": "ratio of CB1-coupled TRPV1 compared to total TRPV1", "result": 27, "unit": "%"}
    ]}
  ]
}
